Test results: publication PMC4336329 (PLoS ONE, 2015)
The whole screen tested about 310,000 compounds, of which about 2,200 (0.71%) showed an effect of 50% or more. The effect is printed as a negative number. This is one part of the list.

The molecules below were run against human ether-à-go-go-related gene (hERG) potassium channel (human, UniProt Q12809) (assay: primary screen, population patch clamp on CHO cells stably expressing hERG).
human ether-à-go-go-related gene (hERG) potassium channel, sequence (Q12809 whole entry, looked up): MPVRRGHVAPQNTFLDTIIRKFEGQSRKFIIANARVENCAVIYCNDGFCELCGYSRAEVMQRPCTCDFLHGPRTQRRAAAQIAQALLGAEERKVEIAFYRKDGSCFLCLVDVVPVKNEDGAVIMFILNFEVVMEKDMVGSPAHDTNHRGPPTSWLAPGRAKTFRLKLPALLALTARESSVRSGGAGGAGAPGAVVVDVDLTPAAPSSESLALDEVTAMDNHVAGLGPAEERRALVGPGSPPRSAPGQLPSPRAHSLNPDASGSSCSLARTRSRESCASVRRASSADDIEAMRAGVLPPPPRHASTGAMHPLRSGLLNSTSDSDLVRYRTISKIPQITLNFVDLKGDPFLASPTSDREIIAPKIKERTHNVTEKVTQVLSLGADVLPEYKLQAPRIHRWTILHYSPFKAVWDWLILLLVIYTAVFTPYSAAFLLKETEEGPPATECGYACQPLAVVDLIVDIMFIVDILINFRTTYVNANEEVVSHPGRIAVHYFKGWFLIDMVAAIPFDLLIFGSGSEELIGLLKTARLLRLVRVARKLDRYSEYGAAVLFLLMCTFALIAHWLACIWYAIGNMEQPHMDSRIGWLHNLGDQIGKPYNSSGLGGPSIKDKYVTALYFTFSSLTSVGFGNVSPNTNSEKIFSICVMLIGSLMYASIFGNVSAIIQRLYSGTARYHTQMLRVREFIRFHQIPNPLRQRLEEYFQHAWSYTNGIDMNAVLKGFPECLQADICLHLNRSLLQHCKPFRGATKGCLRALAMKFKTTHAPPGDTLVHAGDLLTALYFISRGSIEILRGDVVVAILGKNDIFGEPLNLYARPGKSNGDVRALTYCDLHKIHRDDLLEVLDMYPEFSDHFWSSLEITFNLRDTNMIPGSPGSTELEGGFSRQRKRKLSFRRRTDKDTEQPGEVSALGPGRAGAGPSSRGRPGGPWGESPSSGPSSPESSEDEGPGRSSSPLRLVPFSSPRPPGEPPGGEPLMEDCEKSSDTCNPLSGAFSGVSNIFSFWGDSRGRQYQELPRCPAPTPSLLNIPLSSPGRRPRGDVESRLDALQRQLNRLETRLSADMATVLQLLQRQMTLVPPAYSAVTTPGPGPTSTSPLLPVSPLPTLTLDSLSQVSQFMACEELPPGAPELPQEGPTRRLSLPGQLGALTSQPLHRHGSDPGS

First: COc1ccc(NS(=O)(=O)c2cccc(C(=O)N3CCN(c4ccccc4O)CC3)c2)cc1
Second: CC(=O)c1ccc(N2CCN(C(=O)c3cc(-c4ccncc4)nc4ccc(Cl)cc34)CC2)cc1
The “hERG current change (%, negative = inhibition) at 1uM” value of the first is lower: -8.74% for the first, 10.8% for the second.

Going from `CC(=O)c1ccc(OC(=O)CCc2ccccc2)cc1` to `CC(=O)Nc1ccc(C(=O)OCCc2ccccc2)cc1`, the “hERG current change (%, negative = inhibition) at 1uM” value falls from 14% to 12%.

First: Cn1nc(C(=O)NNC(=O)CCOc2ccc(C(C)(C)C)cc2)c2ccccc2c1=O
Second: COc1ccc(-n2nc(C(=O)NCC(=O)N3CCOCC3)c3ccccc3c2=O)c(OC)c1
The “hERG current change (%, negative = inhibition) at 1uM” value of the first is lower: -8.16% for the first, 10.2% for the second.

First: NC(=O)Cn1c(-c2nonc2N)nc2ccccc21
Second: C=C(Br)Cn1c(CCC)nc2ccccc21
The “hERG current change (%, negative = inhibition) at 1uM” value of the first is lower: 10.2% for the first, 15.9% for the second.

First: CCOc1ccc(Nc2c3ccccc3nc3ccccc23)cc1
Second: S=C(NCc1ccccc1)Nc1ccc(Oc2ccccc2)cc1
The “hERG current change (%, negative = inhibition) at 1uM” value of the first is lower: 2.31% for the first, 15.5% for the second.

Compared with `O=C(CSc1nnc(Nc2ccccc2)s1)NC1CC1`, `Cc1ccccc1C(=O)Nc1nnc(SCC(=O)NCc2ccco2)s1` is higher in “hERG current change (%, negative = inhibition) at 1uM” value: 1.19% for the first, 9.58% for the second.

Compared with `Cc1cc(C(=O)NCc2ccc(C(=O)O)o2)c(C)o1`, `COc1ccc(NC(=O)c2ccc(C)o2)c([N+](=O)[O-])c1` is lower in “hERG current change (%, negative = inhibition) at 1uM” value: 7.76% for the first, 3.68% for the second.

Going from `O=C(Nc1ccc2nc(-c3ccco3)[nH]c2c1)c1ccco1` to `CC(C)(C)n1cnc2cc(NC(=O)c3ccco3)ccc21`, the “hERG current change (%, negative = inhibition) at 1uM” value rises from 5.2% to 16%.

Compared with `Cc1c(OCC(=O)NCCCN2CCCC2=O)ccc2c3c(c(=O)oc12)CCCC3`, `Cc1c(C)c2c(OCC(=O)Nc3ccc(CCO)cc3)cc3c(c2oc1=O)CCC(C)(C)O3` is lower in “hERG current change (%, negative = inhibition) at 1uM” value: 5.38% for the first, 2.05% for the second.

Compared with `NC(=O)c1cc2ccccc2o/c1=N/NC(=O)c1ccccc1`, `O=C(O)COc1ccccc1/C=N/NC(=O)c1cc(-c2ccc(Cl)cc2)nc2ccccc12` is higher in “hERG current change (%, negative = inhibition) at 1uM” value: 5.3% for the first, 8.82% for the second.

Going from `Cc1cc(C)c2[nH]c(=O)c(C(c3nnnn3Cc3ccc4c(c3)OCO4)N3CCCC3)cc2c1` (centres unmarked) to `CCCCn1c(SCC(=O)Nc2ccc3c(c2)OCO3)nc2c1c(=O)n(C)c(=O)n2C`, the “hERG current change (%, negative = inhibition) at 1uM” value falls from 5.5% to -8.07%.

First: COC(=O)c1ccc(NC(=O)c2ccc3c(c2)NC(=O)C2CCCN32)cc1 (centres unmarked)
Second: COc1ccc(/C=N/Nc2ccc(C(=O)O)cc2)cc1OC
The “hERG current change (%, negative = inhibition) at 1uM” value of the first is lower: 3.51% for the first, 4.49% for the second.

First: O=C(N/N=C/c1c[nH]c2ccc(Br)cc12)c1ccccn1
Second: O=C(N/N=C/c1c[nH]c2ccccc12)C1CC(=O)N(c2ccccc2)C1 (centres unmarked)
The “hERG current change (%, negative = inhibition) at 1uM” value of the first is higher: 14.2% for the first, 8.37% for the second.

Going from `COc1cccc(OC)c1OCCCSc1nc(C)cc(=O)[nH]1` to `COc1cccc(C(=O)OCCCOC(=O)c2cccc(OC)c2OC)c1OC`, the “hERG current change (%, negative = inhibition) at 1uM” value rises from -2.38% to 12.6%.

Compared with `Cc1ccc(N(CC(=O)NC2CCCCC2C)S(=O)(=O)c2c(C)nn(C)c2C)cc1` (centres unmarked), `Cc1cc(C)c(C(=O)N2CCCC(CNS(=O)(=O)c3cccs3)C2)o1` (centres unmarked) is lower in “hERG current change (%, negative = inhibition) at 1uM” value: 10.7% for the first, 8.74% for the second.

Compared with `O=S(=O)(Nc1ccc(-n2cnnn2)cc1)c1ccccc1F`, `O=C(CCN1C(=O)c2ccccc2C1=O)Nc1ccc(F)cc1` is lower in “hERG current change (%, negative = inhibition) at 1uM” value: 11.6% for the first, 4.3% for the second.

First: CCN1CCN(CCCCSc2ccccc2)CC1.O=C(O)C(=O)O
Second: CC(CN1CCCC(C(N)=O)C1)c1ccccc1 (centres unmarked)
The “hERG current change (%, negative = inhibition) at 1uM” value of the first is lower: 5% for the first, 14.2% for the second.

Going from `NC(=O)CSc1nnc(NC(=O)C2CC(=O)N(c3ccc(F)cc3)C2)s1` (centres unmarked) to `COC(=O)c1cc2c(ccn2-c2ccc(F)cc2)n1CC(=O)C(C)(C)C`, the “hERG current change (%, negative = inhibition) at 1uM” value falls from 17.2% to 13.9%.

Compared with `COCCCN1C(=O)C(=O)/C(=C(/O)c2ccc(OC(C)C)cc2)C1c1ccncc1` (centres unmarked), `CCc1nnc(NS(=O)(=O)c2ccc(NC(=S)NC(=O)c3ccc(OC)cc3)cc2)s1` is lower in “hERG current change (%, negative = inhibition) at 1uM” value: 17.4% for the first, 15% for the second.

Compared with `O=C(/C=C/c1cccc2ccccc12)NCCC1=CCCCC1`, `O=C(CSCc1c(F)cccc1Cl)NCCc1ccccc1` is lower in “hERG current change (%, negative = inhibition) at 1uM” value: 10.3% for the first, 8.84% for the second.

Going from `O=C(Nc1ccccc1C(=O)O)c1ccc(Br)c(S(=O)(=O)NCc2ccccc2)c1` to `O=C(O)CC(NC(=O)Cc1ccccc1)c1ccccc1` (centres unmarked), the “hERG current change (%, negative = inhibition) at 1uM” value falls from 13.7% to 10.1%.

Compared with `CCOCCCNc1nc(-c2ccccc2)nc2ccccc12.Cl`, `O=c1c2ccccc2nc(/C=C/c2ccccc2)n1CCCO` is lower in “hERG current change (%, negative = inhibition) at 1uM” value: 9.26% for the first, 0.792% for the second.

Going from `COc1cc2c3c(c1OC)C1(C=CC(=O)C=C1)CC3N(C(C)=O)CC2` (centres unmarked) to `COc1cc(-n2c(C)nc3cc(C(=O)O)ccc32)cc(OC)c1OC`, the “hERG current change (%, negative = inhibition) at 1uM” value rises from 2.4% to 8.5%.

Going from `CSc1nc(-c2ccccc2)nc(N)c1C(C)=O` to `Cc1c(C)n(CCC(=O)O)c2ccccc12`, the “hERG current change (%, negative = inhibition) at 1uM” value rises from 5.67% to 21%.

Going from `CC(CC(=O)Nc1cccc(S(=O)(=O)N2CCCCC2)c1)c1ccccc1` (centres unmarked) to `CC1CCC2(CC1)NC(=O)N(CC(=O)Nc1cccc(S(=O)(=O)N3CCCC3)c1)C2=O` (centres unmarked), the “hERG current change (%, negative = inhibition) at 1uM” value falls from 7.84% to 3.91%.

Compared with `COc1cc(OC)c(C2CC(=O)N3CN(c4ccccc4)CSC3=C2C#N)cc1OC` (centres unmarked), `COc1ccc(-n2c(N)c(C(=O)NCc3ccco3)c3nc4ccccc4nc32)cc1OC` is lower in “hERG current change (%, negative = inhibition) at 1uM” value: 10.1% for the first, 6.2% for the second.

Compared with `COc1ccccc1NC(=O)C(=O)Nc1ccccn1`, `O=C(O)c1cn(Cc2cccnc2)c(=O)c2ccccc12` is lower in “hERG current change (%, negative = inhibition) at 1uM” value: 11.7% for the first, 9.94% for the second.

Going from `Cc1cc(C(=O)C(=O)N(C)C)c(C)n1-c1ccc(Cl)cc1` to `CC1=CC2=NC(=O)/C(=C\c3cc(C)n(-c4cccc(Cl)c4)c3C)C(=N)N2O1`, the “hERG current change (%, negative = inhibition) at 1uM” value falls from 12.7% to -0.238%.

Compared with `NC(=O)c1ccsc1NC(=O)COC(=O)C1CC2CCCC(C1)C2=O` (centres unmarked), `O=C(O)C1=C[C@H](C2CC2)C[C@H](OCc2ccc(CO)cc2)O1` is lower in “hERG current change (%, negative = inhibition) at 1uM” value: 37.3% for the first, 14.7% for the second.

First: COc1cc2c(cc1O)C[C@H]1NCCc3cc4c(c-2c31)OCO4
Second: COc1ccc(Cc2nc3ccc(C(=O)NCc4ncc(C)[nH]4)cc3o2)cc1OC
The “hERG current change (%, negative = inhibition) at 1uM” value of the first is lower: 2.12% for the first, 6.64% for the second.

Going from `Cc1ccc(C)c(OCCC(=O)N2CCN(S(=O)(=O)c3cc(F)ccc3F)CC2)c1` to `O=C(Cc1c(F)cccc1Cl)Nc1ccc(S(=O)(=O)N2CCOCC2)cc1`, the “hERG current change (%, negative = inhibition) at 1uM” value rises from 7.84% to 12.8%.

First: CCn1c(SCC(=O)N/N=C/C=C/c2ccco2)nc2ccccc21
Second: C=CCn1c(CCC)nc2ccccc21
The “hERG current change (%, negative = inhibition) at 1uM” value of the first is lower: 3.34% for the first, 6.27% for the second.

Going from `CCCCN1CC(=O)N2[C@H](c3ccc(Cl)cc3)[C@@H]3C(=O)N(CC)C(=O)[C@@H]3[C@]2(C)C1=O` to `Cn1cc(Br)c(C(=O)NN2C(=O)C3C4C=CC(C5CC45)C3C2=O)n1` (centres unmarked), the “hERG current change (%, negative = inhibition) at 1uM” value rises from -0.844% to 29.1%.

First: CC(=NCCc1ccccc1)C1=C(O)CCC1=O
Second: CC(C)(C)NS(=O)(=O)c1ccc(NC(=O)CS(=O)(=O)Cc2ccccc2)cc1
The “hERG current change (%, negative = inhibition) at 1uM” value of the first is lower: -1.37% for the first, 15.9% for the second.

First: Cc1ccc(S(=O)(=O)NC2=NCN(C)CN2)cc1[N+](=O)[O-]
Second: CC1CCN(c2ccc(N3C(=O)C4CCCCC4C3=O)cc2[N+](=O)[O-])CC1 (centres unmarked)
The “hERG current change (%, negative = inhibition) at 1uM” value of the first is lower: -8.15% for the first, 18.2% for the second.

Going from `CCCS(=O)(=O)N1CCC(C(=O)N2CCCC2)CC1` to `CC(C)COC(=O)n1ccc(C(=O)N2CCCCC2)n1`, the “hERG current change (%, negative = inhibition) at 1uM” value falls from 3.1% to 0.919%.

Going from `CCOc1cccc(/C=N/NC(=O)c2cc(-c3cccn3C)n[nH]2)c1O` to `O=[N+]([O-])c1cccc(/C=N/n2cnnc2)c1O`, the “hERG current change (%, negative = inhibition) at 1uM” value rises from 1.34% to 7.69%.

Compared with `O=C(Nc1ccc2c(c1)OCCO2)C1CCN(C(=O)c2ccccc2)CC1`, `O=C(CCCc1cccs1)Nc1ccc2c(c1)OCO2` is higher in “hERG current change (%, negative = inhibition) at 1uM” value: 7.75% for the first, 12% for the second.

First: Cc1c(Cl)cccc1NC(=S)N1CCN(c2ncccn2)CC1
Second: Cc1cnc(C(=O)N2CCCC(N3CCN(c4ccccc4C)CC3)C2)cn1 (centres unmarked)
The “hERG current change (%, negative = inhibition) at 1uM” value of the first is higher: 16.6% for the first, -0.689% for the second.

Compared with `COC(=O)c1ccc(Cn2cnc3c(cnn3-c3ccc(C)c(C)c3)c2=O)o1`, `COc1ccc(OC)c(CCNC(=O)CCCC(=O)n2ncc3cc(C)ccc32)c1` is lower in “hERG current change (%, negative = inhibition) at 1uM” value: 7.86% for the first, 5.91% for the second.

First: CN(C)S(=O)(=O)c1ccc(NC(=S)NC(=O)c2cccs2)cc1
Second: COC(=O)c1c(-c2ccc(C)cc2)csc1NC(=S)NC(=O)c1cc(OC)cc(OC)c1
The “hERG current change (%, negative = inhibition) at 1uM” value of the first is lower: 12.3% for the first, 15.3% for the second.

Compared with `O=C(O)/C=C\C(=O)O.c1ccc2c(c1)CC1CNCc3cccc(c31)S2` (centres unmarked), `Cc1ccccc1NC(=O)Cn1nnc(-c2ccc(N3CCOCC3)cc2)n1` is higher in “hERG current change (%, negative = inhibition) at 1uM” value: -9.05% for the first, 9.38% for the second.

First: CCNc1nc(Oc2c(Cl)cccc2Cl)cc(C(F)(F)F)n1
Second: CCOC(=O)C1=C(CC)Nc2ccccc2N=C1NC(=O)c1cc(C)on1
The “hERG current change (%, negative = inhibition) at 1uM” value of the first is lower: 3.61% for the first, 3.86% for the second.

First: O=C(O)CC(C(=O)NC1CCCCC1)C1CCCO1 (centres unmarked)
Second: CCOCCn1c(CN2CCCCC2)nc2c1c(=O)n(C)c(=O)n2C
The “hERG current change (%, negative = inhibition) at 1uM” value of the first is lower: 4.27% for the first, 16.6% for the second.

`COC(=O)C1C(c2ccccc2)NC(=O)NC1(O)C(F)(F)Cl` (centres unmarked) was tested, and the “hERG current change (%, negative = inhibition) at 1uM” value was -1.56%.
